The source gives no read counts; variants with many changes may rest on few reads.
B1: CPEB3 Ribozyme (parent)
chain: UAACAGGGGGCCACAGCAGAAGCGUUCACGUCGCAGCCCCUGUCAGAUUCUGGUGAAUCUGCGAAUUCUGCUGUAUAUCUC

Variants of: B1
Test: self-cleavage, relative activity (ratio to wild type); higher = more cleavage; in vitro, sequencing
Procedure, shortened: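 Relative activity was defined as the cleaved/total read fraction for a variant divided by the same fraction for the unmutated ribozyme. CPEB3 self-cleaving ribozyme libraries were made by rounds of error-prone PCR, barcoded, and transcribed in vitro with T7 RNA polymerase for 5 hours at 37°C, and cleavage ran through transcription plus a 15 min DNase I step before EDTA. Illumina sequencing of template-switched reverse transcripts gave the reads, and DNA sequencing mapped the barcodes. Averages come from three batches, using variants with at least 5 reads.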

Variant | self-cleavage
UAACAGGGGGCCACAGCAGAAGUGUUCACGUCGCAGCCCCCGACAGAUUCUGGUGAAUCUGCGAGUUCUGCUGUAUAUCUC [C23U U41C U43A A65G] | 0.16
UAACAGGGGGCCACAGCAGAAGUGUUCACGUCGCAGCCCCCGACAGAUUCUGGUGAACCUGCGAAUUCUGCUGUAUAUCUC [C23U U41C U43A U58C] | 0.2
UAACAGGGGGCCACAGCAGAAGUGUUCACGUCGCAGCCCCCGCCAGAUCCUGGUGAAUCUGCGAAUUCCGCUGUAAACCUC [C23U U41C U43C U49C U69C U76A U78C] | 0.11
UAACAGGGGGCCACAGCAGAAGUGUUCACGUCGCAGCCCCCGCCAGAUUCUGGUGAAUCCGAGAAUUCUGCUGUAUAUCUC [C23U U41C U43C U60C C62A] | 0.06
UAACAGGGGGCCACAGCAGAAGUGUUCACGUCGCAGCCCCUGACAGAUUCUGGUGGAUCUGCGAAUUCUGCUGUAUAUCUC [C23U U43A A56G] | 0.41
UAACAGGGGGCCACAGCAGAAGUGUUCACGUCGCAGCCCCUGACAGAUUCUGGUGAAUCUGCGGGUUCUGCUGCACAUCUC [C23U U43A A64G A65G U74C U76C] | 0.05
UAACAGGGGGCCACAGCAGAAGUGUUCACGUCGCAGCCCCUGCCGGAUUCUAGCGAAUCUGCGAAUUCUGCUGUUUAUCCC [C23U U43C A45G G52A U54C A75U U80C] | 0.09
UAACAGGGGGCCACAGCAGAAGUGUUCACGUCGCAGCCCCUGCCAGGUCCUGGUGAAUCUGCGGAUUCUGCGGUAUAUCUC [C23U U43C A47G U49C A64G U72G] | 0.07
UAACAGGGGGCCACAGCAGAAGUGUUCACGUCGCAGCCCCUGCCAGAUUCUGGUGGAUCUGCGAAUUGUGCUGUAGAUCUC [C23U U43C A56G C68G U76G] | 0.14
UAACAGGGGGCCACAGCAGAAGUGUUCACGUCGCAGCCCCUGCCAGAUUCUGGCGAAUCUGCGAAUUCCGCUGUAUAUCUC [C23U U43C U54C U69C] | 0.13
UAACAGGGGGCCACAGCAGAAGUGUUCACGUCGCAGCCCCUGUCAGACUCUGGUGAAUCUGCGUAUUCUGCUGUAUAUCUC [C23U U48C A64U] | 0.19
UAACAGGGGGCCACAGCAGAAGUGUUCACGUCGCAGCCCCUGUCAGACUCUGGUGAAUCUGCUAAUUCUGCUGUAUAUCUC [C23U U48C G63U] | 0.22
UAACAGGGGGCCACAGCAGAAGUGUUCACGUCGCAGCCCCUGUCAGAUCCUGGUGAAUCUGCAAAUUCUGCUGUAUAUCAC [C23U U49C G63A U80A] | 0.05
UAACAGGGGGCCACAGCAGAAGUGUUCACGUCGCAGCCCCUGUCAGAUCCUGGAGAAUCCGCGAAUUCUGCUGUAUAUCUC [C23U U49C U54A U60C] | 0.51
UAACAGGGGGCCACAGCAGAAGUGUUCACGUCGCAGCCCCUGUCAGAUCCUGGUGAAUCUGCGAAUCCUGCUGUAUAUCUC [C23U U49C U67C] | 0.08
UAACAGGGGGCCACAGCAGAAGUGUUCACGUCGCAGCCCCUGUCAGAUUCAGGUGAAUCUGCGGAUUCCGCAGUAUAUCUC [C23U U51A A64G U69C U72A] | 0.1
UAACAGGGGGCCACAGCAGAAGUGUUCACGUCGCAGCCCCUGUCAGAUUCUGGCGAAUCUGUGAAUUCUGCUGUAUAUCUC [C23U U54C C62U] | 0.11

Variant | self-cleavage
UAACAGGGGGCCACAGCAGAAGUGUUCACGUCGCAGCCCCUGUCAGAUUCUGGUGAACCUGCGAAUUCUGCCGUAUAUCUC [C23U U58C U72C] | 0.23
UAACAGGGGGCCACAGCAGAAGUGUUCACGUCGCAGCCCCUGUCAGAUUCUGGUGAAUCAGCGAAUUCUGCUGUACAUCUC [C23U U60A U76C] | 0.06
UAACAGGGGGCCACAGCAGAAGUGUUCACGUCGCAGCCCCUGUCAGAUUCUGGUGAAUCCGCGAAUUAUGCUGAAUAUCUC [C23U U60C C68A U74A] | 0.04
UAACAGGGGGCCACAGCAGAAGUGUUCACGUCGCAGCCCCUGUCAGAUUCUGGUGAAUCCGCGAAUUCUGCUGUAAAUCUC [C23U U60C U76A] | 0.08
UAACAGGGGGCCACAGCAGAAGUGUUCACGUCGCAGCCCCUGUCAGAUUCUGGUGAAUCUGCGAAUCCUGCCGUAUAUCUC [C23U U67C U72C] | 0.09
UAACAGGGGGCCACAGCAGAAGUGUUCACGUCGCAGCCCCUGUCAGAUUCUGGUGAAUCUGCGAAUUCCGCUGUAUGUCUC [C23U U69C A77G] | 0.34
UAACAGGGGGCCACAGCAGAAGCAUUCGCGUUGCAGCCCCUGUCAGAUUCUGGUGAACCUGCGAAUUCUGCUGUAUAUCUC [G24A A28G C32U U58C] | 0.07
UAACAGGGGGCCACAGCAGAAGCAUUCGCGUCGCAGCCCCAGUCGGAUUCUGGUGAAUCUGCGAGUUCUGCUGUAUAUCUC [G24A A28G U41A A45G A65G] | 0.08
UAACAGGGGGCCACAGCAGAAGCAUUCGCGUCGCAGCCCCAGUCAGAUUCUGGUGAAUCUGCGAAUUCUGCUGAAUAUCUC [G24A A28G U41A U74A] | 0.17
UAACAGGGGGCCACAGCAGAAGCAUUCGCGUCGCAGCCCCCGUCAGAUUCUGGUGAGUCUGCGAAUUCUGCUGUAUAUCUC [G24A A28G U41C A57G] | 0.05
UAACAGGGGGCCACAGCAGAAGCAUUCGCGUCGCAGCCCCUGUCAGAUUCUGGUGAAUCUGCGAAUUCUGCUGCAUAUCUC [G24A A28G U74C] | 0.16
UAACAGGGGGCCACAGCAGAAGCAUUCUCGUCGCAGCCCCUGUCAGAUUCUGGUGUAUCUGCGAAUUCUGCUGUAUAUCUC [G24A A28U A56U] | 0.14
UAACAGGGGGCCACAGCAGAAGCAUUCUCGUCGCAGCCCUUGUCAGAUUCUGGUGAAUCUGCGAAUUCUGCUGUAUAUCUC [G24A A28U C40U] | 0.13
UAACAGGGGGCCACAGCAGAAGCAUUCACGUCGCGGCCCCUGUCAGAUUCUGGUGAGUCUGCGAAUUCUGCUGUAUAUCUC [G24A A35G A57G] | 0.16
UAACAGGGGGCCACAGCAGAAGCAUUCACGUCGCGGCCCCCGUCAGAUUCUGGUGAAUCUGCGAAUUCUGCUGUAUAUCUC [G24A A35G U41C] | 0.11
UAACAGGGGGCCACAGCAGAAGCAUUCACGUCGCGGCCCCCGUCAGAUUCUGGUGAAUCCGCGAAUUCUGCUGCAUAUCUG [G24A A35G U41C U60C U74C C81G] | 0
UAACAGGGGGCCACAGCAGAAGCAUUCACGUCGCGGCCCCGGUCAGAUUCUGGUGAAUCUGCGAAUUCUGCUGUAUAUCUC [G24A A35G U41G] | 0.11

— the RNAGym collection of RNA variant scans (doi:10.1093/nar/gkz1192)
